# Data from PubChem BioAssay AID1671194 (National Center for Advancing Translational Sciences (NCATS), 2021).
# Screen size: about 140,000 compounds; about 240 (0.17%) were called active. This list was built around the results that the source calls inconclusive (neither active nor inactive); the mix of calls is not that of the screen. The call rests on the fitted dose curve; in most records, active means well fitted inhibition curve with a large enough effect; inconclusive means small, poorly fitted or top-dose-only effect; inactive means no such curve, though single readings can be large or run the other way. Potencies of inconclusive entries are doubtful fits and often do not repeat.
# Test: Primary qHTS assay for inhibitors of alpha-synuclein gene (SNCA) expression; further: nearly all actives have a fitted effect of over 45% in size
# Details: HEK-293 SNCA-luciferase knock-in, luminescence, 24 h; activity change, negative = inhibition: at 57.2 µM (top of the series) unless noted
# Text: Assay Submitter (PI): Daniel R. Scoles Ph.D.
# Department of Neurology, University of Utah, Salt Lake City, Utah
# Accumulation of alpha-synuclein is a main underlying pathological feature of Parkinson's disease (PD) and alpha-synucleinopathies, for which lowering expression of the alpha-synuclein gene (SNCA) is a potential therapeutic avenue. Using a cell-based luciferase reporter of SNCA expression we performed a quantitative high throughput screen (qHTS) of 155,885 compounds in dose response. The screening assay was generated using genome editing to insert the luciferase gene downstream and in frame of the SNCA gene in HEK-293 cells (1). A viability counterscreen using GF-AFC was used to eliminate cytotoxic and false positive compounds. After in silico analysis (clustering, removal of frequent hitter nuisance chemotypes), inhibitor compounds from the primary screen were selected for follow up and re-tested at 11-doses in the SNCA-luc cells (luciferase and GF-AFC confirmation), and in CMV-luc expressing cell line to flag general transcriptional repressors.
# Described herein are the results of the primary screen for SNCA inhibitors; decrease in luciferase signal (inhibition of the SNCA gene expression) is the desired output for this assay.
# 1. Dansithong, W., Paul, S., Scoles, D. R., Pulst, S. M., and Huynh, D. P. (2015) Generation of SNCA Cell Models Using Zinc Finger Nuclease (ZFN) Technology for Efficient High-Throughput Drug Screening. PLoS ONE 10, e0136930.
# SEQUENCE No. (e.g., 1, 2, 3, etc.); […] (e.g., Cells, Incubation, Reagent, etc.); VALUE; DESCRIPTION
# 1; Cells; 4 uL; Dispense 1500 HEK-293-SNCA-luc cells/well into Greiner 1536-well white / solid bottom tissue culture treated plate. The plate was covered with metal lids with gas-exchange holes.
# 2; Incubate; 24 hours; Incubate at 37C, 5% CO2, 95% RH.
# 3; Compounds; 23 nL; Compounds and controls were transferred via a Kalypsys Pin Tool (Wako USA) equipped with a 1536-slotted pin array. The plate was covered with metal lids with gas-exchange holes.
# 4; Incubate; 24 hours; Incubate at 37C, 5% CO2, 95% RH.
# 5; Dispense; 1 uL; Dispense Gly-Phe-7-amino-4-trifluoromethylcoumarin (GF-AFC, prepared at 125 uM in PBS) was added. The plate was covered with metal lids with gas-exchange holes.
# 6; Incubate; 30 min; Incubate at 37C, 5% CO2.
# 7; Detector; Fluorescence; Measure fluorescence with ViewLux microplate reader (PerkinElmer) equipped with 405/10 excitation and 540/25 emission filters.
# 8; Dispense; 3 uL; Dispense ONE-Glo ([…]) lucifase detection reagent was added to each well. Plates were covered with metal lids with gas-exchange holes.
# 9; Incubate; 15 min; Incubate at room temperature.
# 10; Detector; Luminescence; Measure luminescence with ViewLux microplate reader (PerkinElmer) equipped with clear filters.
# NOTES (numbers refer to sequence above)
# 1; HEK-293-SNCA-luc were cultured and suspended in phenol-red free DMEM (4.5 g/L glucose, 25 mM HEPES, cat #21063 (Thermo)).
# 3; Compounds were added to the assay plate in an 11-point intra plate dose response, 1:3 titration in DMSO with a final concentration range of […]. Vehicle-only plates, with DMSO being pin-transferred to every well, were inserted at the beginning of screening runs to confirm expected assay performance. Activity was normalized to wells containing medium only (-100% activity, full inhibition) and SNCA-luc cells treated with DMSO vehicle control (0% activity), contained on the same plate as test samples.
# 10; Signals were analyzed, and dose-response curves were fit using the Hill equation. Compounds in curve classes -1.1, -1.2, -2.1, -2.2 in the SNCA-luc assay were considered active. Compounds were eliminated from further consideration if also active (curve class -1.1, -1.2, -1.3, -1.4, -2.1, -2.2, -2.3, -2.4) in the GF-AFC cytotoxicity assay.
# Potency means the concentration at half of the fitted maximal effect; tags describe the fitted curve by direction and shape.
Structure (SMILES),Potency,"activity change, negative = inhibition"
CCCC(=O)Nc1nnc(SCc2cc(=O)n3ccccc3n2)s1,"inconclusive: 39.8 µM [inhibitor, single point]",–
COc1ccc(NC(=O)[C@@H]2C[C@@H](c3ccc(F)cc3)N(Cc3ccccc3)C2)cn1,"inconclusive: 7.94 µM [inhibitor, full curve, poor fit]",–
COCCOc1ccc2c(n1)CCN(C(=O)CC(C)C)C2,–,inactive: -20.4%
N#Cc1cccc(CN2CCCCC23Cc2ccccc2CNC3=O)c1 (stereo not drawn),–,inactive: -22.7%
CCN(C(=O)Cn1ccn2nc(-c3ccccc3)c(CO)c2c1=O)c1ccccc1,"inconclusive: 39.8 µM [inhibitor, single point]",–
Cc1ccc(Cn2c(CN3CCC(C(=O)NCc4cccnc4)CC3)cc3ccccc32)cc1,"inconclusive: 39.8 µM [inhibitor, single point]",–
CCN(CCN(C)C)C(=O)Cn1ncc2c([nH]c3ccc(C)cc32)c1=O,"inconclusive: 2 µM [inhibitor, single point]",–
Cn1ncc2c(N[C@H]3C[C@H]4C(=O)NCC(=O)N4C3)nc(C3CCCC3)nc21,"inconclusive: 0.891 µM [inhibitor, full curve, poor fit]",–
CN1C(=O)CCc2cc(NC(=O)Cc3ccc(Cl)cc3)ccc21,–,inactive: 11.7%
Cc1ccc(C(=O)c2cn(Cc3cc(C)ccc3C)c3nc(C)ccc3c2=O)cc1,"inconclusive: 17.8 µM [inhibitor, single point]",–
COc1ccc(OC)c(NC(=O)CSc2c3c(nc4cc(Cl)ccc24)CCCC3)c1,–,inactive: 1.7%
CN(C)CCOc1ccc(C(=C(CCCl)c2ccccc2)c2ccccc2)cc1,"inconclusive: 21.5 µM [inhibitor, partial curve, poor fit]",–
Cc1ccc(-n2cnc3cc(C(=O)NC4CCCCCC4)ccc32)c(C)c1,"inconclusive: 0.631 µM [inhibitor, partial curve, poor fit]",–
O=C(NCCc1cccnc1)c1cccc2c1CCN2C(=O)Nc1ccc(F)cc1,"inconclusive: 31.6 µM [inhibitor, single point]",–
O=C(NCc1ccc(Cl)cc1)c1ccc2cncn2c1,–,inactive: 17% [at 87.6 µM]
Cn1ccc(NC(=O)C2(C)CN(Cc3ccccc3)Cc3ccc(N4CCOCC4)nc32)n1 (stereo not drawn),–,inactive: -13.9%
COc1ccc(NC(=O)Cn2c(=O)n(-c3ccccc3)c(=O)c3c2cc(C)n3C)cc1,"inconclusive: 25.1 µM [inhibitor, partial curve, poor fit]",–
Cc1ccc(NC(=O)CN2C(=O)C(c3ccc(C)cc3)=NC23CCCCCC3)cc1,"inconclusive: 39.8 µM [inhibitor, single point]",–
CCN(CC)C(=O)c1sc2c(c1C)c(=O)n(CCc1ccccc1)c(=O)n2Cc1ccc(C)cc1,"inconclusive: 39.8 µM [inhibitor, single point]",–
Cc1ccccc1-c1nc(N2CCOCC2)cc2c1CN(Cc1cnn(C)c1)C2=O,–,inactive: -9.26% [at 87.6 µM]
CN(C)CCN(C)C(=O)c1ccc2c(c1)NC(C)(CCCCc1ccccc1)CO2 (stereo not drawn),"inconclusive: 44.7 µM [inhibitor, single point]",–

Structure (SMILES),Potency,"activity change, negative = inhibition"
COc1ccc(-c2cc3nc4c(c(=O)n3[nH]2)CN(C(=O)Cc2ccc(NC(C)=O)cc2)CC4)cc1,active: 8.91 µM,–
COc1ccc(S(=O)(=O)NCCc2sc(-c3cccnc3)nc2C)cc1OC,"inconclusive: 1.26 µM [inhibitor, single point]",–
O=C(Nc1ccccc1)c1cnc2n1CCN(Cc1cccc(OC(F)(F)F)c1)CC2,"inconclusive: 28.2 µM [inhibitor, partial curve]",–
CCOC(=O)C1CCCN(C(=O)c2ccc3oc(-c4ccccn4)nc3c2)C1 (stereo not drawn),–,inactive: 44.3%
COc1ncccc1-c1cnc2[nH]cc(CC(=O)Nc3ccccn3)c2c1,–,inactive: 66.5% [at 87.6 µM]
CCCNC(=O)c1cccc2c1CCN2S(=O)(=O)c1cccc(C)c1,–,inactive: -1.91%
CC(C)(CC(=O)O)CC(=O)N1Cc2[nH]cnc2C[C@H]1c1nc(-c2ccc3c(c2)OCO3)no1,"inconclusive: 7.94 µM [inhibitor, full curve, poor fit]",–
COC(=O)CCCn1c(-c2ccc(C)cc2)c(C)n2c3c(=O)n(C)c(=O)n(C)c3nc12,"inconclusive: 3.98 µM [inhibitor, partial curve]",–
COc1ccc(CN2Cc3cc(NC(=O)c4cc(OC)cc(OC)c4)ccc3OC(C)C2=O)cc1 (stereo not drawn),–,inactive: 2.25%
CCCN(C)C(=O)CC1Sc2ncccc2N(CCC)C1=O (stereo not drawn),"inconclusive: 1.78 µM [inhibitor, partial curve, poor fit]",–
O=C(NC1CCCc2c1[nH]c1ccc(Cl)cc21)c1ccco1 (stereo not drawn),"inconclusive: 4.47 µM [inhibitor, full curve, poor fit]",–
O=C(Nc1cccc(C(F)(F)F)c1)c1nc2c(o1)CCN(Cc1ccccc1F)CC2,–,inactive: -6.15% [at 87.6 µM]
COc1cc(C(=O)NC(c2ccccc2Cl)c2cc(Cl)c3cccnc3c2O)cc(OC)c1OC (stereo not drawn),"inconclusive: 8.91 µM [inhibitor, partial curve, poor fit]",–
CCCCCCCCCCCCc1ccc(S(=O)(=O)Nc2nncs2)cc1,–,inactive: 55.3%
O=C1[C@@H]2C[C@@H](CN2C(=O)c2ccccc2)Oc2ccccc2N1Cc1ccccc1,"inconclusive: 2.51 µM [inhibitor, full curve, poor fit]",–
Cc1noc2c(-c3cn[nH]c3)cc(-c3ccccc3)nc12,"inconclusive: 28.2 µM [inhibitor, single point]",–
O=C1N(C2CCCCC2)C[C@H]2CN(Cc3ccc(C(F)(F)F)cc3)CCN12,"inconclusive: 31.6 µM [inhibitor, single point]",–
C=CCNC(=O)c1cnn2cc(C)ccc12,–,inactive: -6.55% [at 87.6 µM]
NC(=O)[C@H](Cc1cccs1)NC(=O)C1=C[C@@H](NC(=O)c2cccnc2)[C@@H](O)[C@H](O)C1,"inconclusive: 3.16 µM [inhibitor, partial curve, poor fit]",–
Cc1nn2c(c1-c1ccnn1C(C)C)N(CC1CCOCC1)CCC2,"inconclusive: 15.8 µM [inhibitor, partial curve, poor fit]",–
CCc1nc2cc(N3CCCC(C(=O)O)C3)cnc2nc1CC (stereo not drawn),"inconclusive: 39.8 µM [inhibitor, single point]",–

Structure (SMILES),Potency,"activity change, negative = inhibition"
COCc1ccc2c(c1)c(OC(C)(C)C(=O)Nc1ccccn1)nn2CCC(C)C,–,inactive: 1.54% [at 87.6 µM]
Cc1cc(Cn2cc3c4c(cccc42)[C@H](CC(C)C)N[C@H](C(=O)NCc2nccs2)C3)no1,"inconclusive: 39.8 µM [inhibitor, partial curve, poor fit]",–
Cn1cc(CNC(=O)C[C@@H]2C[C@H]3O[C@H](CNC(=O)NCc4ccccc4)[C@@H](O)[C@H]3O2)cn1,"inconclusive: 3.16 µM [inhibitor, single point]",–
COc1ccc(NC(=O)CN2C(=O)NC(c3ccc(Cl)cc3)C3=C2COC3=O)cc1Cl (stereo not drawn),–,inactive: -27.6%
O=C(c1cccc(Cl)c1)N1c2ncnn2C2(CCCCC2)[C@@H]2CCCC[C@@H]21,"inconclusive: 28.2 µM [inhibitor, single point]",–
CC(C)(Oc1nn(Cc2cccc(Cl)c2)c2ccccc12)C(=O)N1CCCC1,"inconclusive: 56.2 µM [inhibitor, single point]",–
CCOC(=O)C1CCCN(C(=O)c2ccc3c(c2)sc2nc(-c4ccc(C)cc4C)cn23)C1 (stereo not drawn),–,inactive: 32.5%
CC1=C(C(=O)OC(C)C)C(c2ccc(Cl)cc2)N2C(CC(=O)N3CCCC3)=CSC2=N1 (stereo not drawn),–,inactive: 13.5%
FC(F)(F)Oc1cccc(CN2CCNc3cc(Nc4cccnc4)ncc3C2)c1,"inconclusive: 10 µM [inhibitor, full curve, poor fit]",–
CCC(C=C[C@@H]1OC(=O)C=C[C@H]1C)=C[C@H](C)CC=CC(C)=C[C@@H](C)C(=O)[C@@H](C)[C@H](O)[C@@H](C)CC(C)=CC(=O)O,active: 0.16 µM,–
O=C(Cn1ccn2nc(-c3ccc(F)cc3)c(CO)c2c1=O)NCc1ccc(Cl)cc1,"inconclusive: 28.2 µM [inhibitor, partial curve]",–
CCOc1ccc(N(C(C)C(=O)NCCSc2ccc(Cl)cc2)S(C)(=O)=O)cc1 (stereo not drawn),"inconclusive: 22.4 µM [inhibitor, partial curve, poor fit]",–
COc1cc([C@H]2Oc3cc([C@H]4Oc5cc(O)cc(O)c5C(=O)[C@H]4O)ccc3O[C@H]2CO)ccc1O,"inconclusive: 6.81 µM [inhibitor, full curve, poor fit]",–
COc1cccc(CC(=O)N2CCCN(c3cc(-c4ccccc4)[nH]n3)CC2)c1,"inconclusive: 10 µM [inhibitor, partial curve, poor fit]",–
COc1ccc(-c2ccc3ncc(Nc4cccc(F)c4)n3n2)cn1,–,inactive: 31.5% [at 87.6 µM]
Cc1noc(C)c1S(=O)(=O)N1CCc2nc3cc(-c4ccccc4)[nH]n3c(=O)c2C1,"inconclusive: 15.8 µM [inhibitor, partial curve, poor fit]",–
O=[S+]([O-])(Nc1ccccc1)c1ccc2c(c1)OCCN(Cc1cccs1)C2,"inconclusive: 15.8 µM [inhibitor, partial curve, poor fit]",–
O=C1NC(=NC2CCCCC2)C2(CCN(Cc3ccccc3)C2)N1c1cc(F)cc(F)c1 (stereo not drawn),"inconclusive: 7.08 µM [inhibitor, partial curve, poor fit]",–
Cc1ccc(NC(=O)c2nnn(Cc3cccc(C(F)(F)F)c3)c2N)c(C)c1,"inconclusive: 0.398 µM [inhibitor, single point]",–
C#CCN(C)Cc1nc(C2(O)CCN(C3CCC3)CC2)cs1,–,inactive: 1.14% [at 87.6 µM]
CCC(Sc1ncccc1C(=O)Oc1ccccc1Cl)C(=O)Nc1ccccc1OC (stereo not drawn),"inconclusive: 3.16 µM [inhibitor, single point]",–
